# Test results taken from the supplement of paper PMC10126150.
# Values marked as one replicate rest on one cluster of the flow cell; about a third of the high ones do not repeat.
# Tested on: ATP
# Experiment: switch fluorescence ratio, 500 uM ATP over buffer (Cy3 cluster intensity, sum of 5 cycles each) (fold (ratio)); higher = stronger signal-on switching upon ATP binding; sequences stand for … in TCGTCGGCAGCGTCAGATGTGTATAAGAGACAGTTTTTTTTTTTTTTTTTTTTTTTTT…TC
# Settings: aptamer strand: ATP DNA aptamer (quencher-CACCTGGGGGAGTATTGCGGAGGAAGG + anchor), 100 nM annealed; ATP concentration: 500 uM; one replicate
# Summary of the method: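 Exposure to 500 uM ATP lasted 15 min at 22 °C before imaging, and a selection-buffer image was taken beforehand, for Cy3-labelled switching-strand clusters on a modified Illumina MiSeq flow-cell annealed to 100 nM quencher-labelled ATP aptamer. Five buffer/ATP cycles were run with NaOH stripping and re-annealing between them. The fluorescence ratio per cluster is summed target-cycle over summed buffer-cycle Cy3 intensity, averaged per switch-domain sequence. Clusters outside 100-1000 RFU were excluded.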
row,Sequence,switch fluorescence ratio
1,CGTGGCTTAA,1.02
2,CGTGGGGCGC,0.992
3,CGTGGGGTAA,1.04
4,CGTGTCCACT,1.01
5,CGTGTTAAAA,0.996
6,CGTGTTCAAT,1.06
7,CGTGTTCCCA,0.977
8,CGTGTTCGTG,0.97
9,CGTGTTCTTT,1.01
10,CGTTAACAAT,1.02
11,CGTTAACGTC,0.991
12,CGTTAAGATT,0.995
13,CGTTACATGA,1.02
14,CGTTACGGAT,0.999
15,CGTTACTCGC,1.2
16,CGTTAGAAGT,0.998
17,CGTTATAGCT,1.02
18,CGTTATGGTT,0.963
19,CGTTCAATAA,1.76
20,CGTTCAGATT,1.02
21,CGTTCAGGCT,1.01
22,CGTTCATGCC,1.05
23,CGTTCCCGGG,1.12
24,CGTTCCGGGA,1.13
25,CGTTCGCCTC,1.27

row,Sequence,switch fluorescence ratio
1,CGTTCTCTGC,1
2,CGTTGAACTG,1.03
3,CGTTGAATAC,2.48
4,CGTTGAGGGC,1.07
5,CGTTGGCTAC,1.54
6,CGTTGTACAT,1.02
7,CGTTGTCGTG,1.03
8,CGTTGTGCGT,1
9,CGTTTAAACG,1.02
10,CGTTTAACTG,1.13
11,CGTTTAATTT,0.986
12,CGTTTATTCG,0.987
13,CGTTTCGCGG,1.03
14,CGTTTCGGGC,1.05
15,CGTTTCTAGC,0.972
16,CGTTTCTGTT,0.932
17,CGTTTGCTT,0.971
18,CGTTTGGAGT,0.989
19,CGTTTGTCGA,0.94
20,CGTTTTCCGT,0.995
21,CGTTTTGACT,1
22,CGTTTTTATA,1.02
23,CGTTTTTTGC,0.954
24,CTAAAGTTAC,1.19
25,CTAAATTCCT,1.07

row,Sequence,switch fluorescence ratio
1,CTAACAGTGC,1.1
2,CTAACCCGGA,0.986
3,CTAACTTGTA,1.01
4,CTAAGAAAGT,0.965
5,CTAAGACTTT,0.978
6,CTAAGCACAT,1.32
7,CTAAGCCGCG,0.938
8,CTAAGCGAAG,0.989
9,CTAAGGTCGT,1.02
10,CTAAGGTGAC,1.07
11,CTAAGTCGTA,0.991
12,CTAAGTCTCG,1
13,CTAATAGTCC,1.13
14,CTAATGTTTG,0.986
15,CTAATTGGGC,1.03
16,CTAATTGTAA,0.983
17,CTAATTGTAC,1.06
18,CTAATTTTGG,1
19,CTACAAGATA,1.05
20,CTACAGCTAA,1.48
21,CTACAGGCAT,1.05
22,CTACAGTCTG,0.99
23,CTACATACAC,1.29
24,CTACATTCTA,1
25,CTACCATATG,1.03

row,Sequence,switch fluorescence ratio
1,CTACCATGAT,1.05
2,CTACCGCATG,3.27
3,CTACCTTGA,1.07
4,CTACCTTTAG,0.996
5,CTACGACGGC,1.34
6,CTACGCGGCT,1.32
7,CTACGGCAAA,2.46
8,CTACGTAGT,1.01
9,CTACGTGTCA,1.05
10,CTAGACAGGA,1.01
11,CTAGACATT,0.993
12,CTAGCATTGA,1.01
13,CTAGCGCTTG,1.02
14,CTAGGACCTC,1.04
15,CTAGGCCATC,1.05
16,CTAGGCGGAA,1.02
17,CTAGGGGGCT,1.09
18,CTAGGGGTCG,1.02
19,CTAGGGTTCG,0.985
20,CTAGGTATAA,1.04
21,CTAGTACATG,1.02
22,CTAGTCAGCG,1
23,CTAGTCCGTA,0.939
24,CTAGTCTGAT,1
25,CTAGTCTGGT,0.955

row,Sequence,switch fluorescence ratio
1,CTAGTGACA,1.05
2,CTATAAGGCA,1.06
3,CTATAATGCT,0.994
4,CTATACCTTT,0.988
5,CTATACGAAC,1.45
6,CTATACTCA,1.11
7,CTATAGCTGT,1.1
8,CTATCACGAT,1.01
9,CTATCGAAGG,0.974
10,CTATCGCCTA,0.992
11,CTATCGTGTT,0.976
12,CTATGAGTC,0.993
13,CTATGCATTC,3.6
14,CTATGCCGTG,1.01
15,CTATGCTCTT,1
16,CTATGGAGGT,0.982
17,CTATGGGGG,0.997
18,CTATGTAGTG,1.01
19,CTATTAGATT,0.983
20,CTATTAGGTC,0.986
21,CTATTATT,0.994
22,CTATTCTGAC,1.01
23,CTATTGACGG,0.97
24,CTATTGATTT,0.984
25,CTATTGTCGG,1.03

row,Sequence,switch fluorescence ratio
1,CTATTTCTTA,0.968
2,CTATTTTAG,0.994
3,CTCAACGATG,1.02
4,CTCAACGGAT,1.03
5,CTCAAGCCTA,1.05
6,CTCAAGCTAG,1.21
7,CTCAAGGA,1.01
8,CTCAATACGG,2.85
9,CTCACAAGGG,1.12
10,CTCACATCGC,1.1
11,CTCACCGACG,1.41
12,CTCACTTACG,1.55
13,CTCACTTGTG,1
14,CTCAGACTTT,0.958
15,CTCAGATGGC,1.01
16,CTCAGGTGAC,1.65
17,CTCAGGTTTC,1.04
18,CTCAGTGGAC,1.54
19,CTCAGTTGGG,0.985
20,CTCATATAAG,0.991
21,CTCATATATG,0.982
22,CTCATCATGG,0.988
23,CTCATCATGT,0.941
24,CTCATCGGCA,1.27
25,CTCATCGTGC,1.14

row,Sequence,switch fluorescence ratio
1,CTCATTATCC,1.03
2,CTCATTCAAA,1
3,CTCATTGCCC,0.976
4,CTCCAACTAT,1.26
5,CTCCAGGGAA,1.18
6,CTCCCAGATT,1.43
7,CTCCCGGGGG,1.46
8,CTCCCTATCA,1.1
9,CTCCGAACAG,2.69
10,CTCCGGACTT,2.48
11,CTCCGGATGG,2.3
12,CTCCGGCTTT,1.54
13,CTCCGGGGTC,2.41
14,CTCCGTAGA,5.19
15,CTCCGTTTTG,2.25
16,CTCCTATAG,1.53
17,CTCCTATGTA,1.06
18,CTCCTCTGTT,1.47
19,CTCCTGAGGT,0.994
20,CTCCTGGGAG,0.957
21,CTCCTTTAAG,1.03
22,CTCGAGTCTG,1.03
23,CTCGCAGGAT,3.89
24,CTCGCATGCG,1.01
25,CTCGCCCCCT,1.13

row,Sequence,switch fluorescence ratio
1,CTCGGACCGT,1.01
2,CTCGGAGCCA,1.09
3,CTCGGATCCT,1
4,CTCGGCCTAA,1.13
5,CTCGGGCAGC,1.13
6,CTCGGGTAGA,1.05
7,CTCGGTACAG,0.993
8,CTCGTATGT,0.981
9,CTCGTGGATG,0.98
10,CTCTAAAATT,1.2
11,CTCTACAACT,1.03
12,CTCTACAGCG,0.995
13,CTCTAGATTG,1.09
14,CTCTATAGTG,0.994
15,CTCTATATCC,1.08
16,CTCTATTATC,1.05
17,CTCTCATGAC,1.9
18,CTCTCTCAGA,1.03
19,CTCTGGACTT,0.998
20,CTCTGGCGCT,1.06
21,CTCTGGTTTT,0.997
22,CTCTGTAAGA,1.14
23,CTCTGTCGGT,1.14
24,CTCTGTGGAG,0.979
25,CTCTGTTACC,1.1
